Experimental data: PubChem BioAssay AID686979 (National Center for Advancing Translational Sciences (NCATS), 2013)
Hit rate of the full screen: of about 420,000 compounds, about 50,000 (12%) were called active. This list was built around the results that the source calls inconclusive (neither active nor inactive); the mix of calls is not that of the screen. Calls come from the whole dose curve; as a rule, active = well fitted inhibition curve with a large enough effect; inconclusive = small, poorly fitted or top-dose-only effect; inactive = flat fitted curve, though single readings scatter. No potency is given beside an inconclusive call; the fits are too rough.

Assay: qHTS for Inhibitors of human tyrosyl-DNA phosphodiesterase 1 (TDP1): qHTS in cells in presence of CPT; note: nearly all actives have a fitted effect of over 55% in size
Settings: chicken DT40 Tdp1-/-;hTDP1 cells + 20 nM CPT, ATP luminescence, 48 h; activity change, negative = growth inhibition: at 46.2 µM (top of the series) unless noted
Outline: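 Chicken DT40 Tdp1-/- cells complemented with human TDP1, 400 cells/well, exposed to compounds plus 20 nM camptothecin for at least 48 h at 37 C; viability read as ATP content by CellTiter-Glo luminescence.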
% is set by controls: 0 for no effect and ±100 for the full control effect; potency is the fitted concentration of half-maximal effect; tags give direction and shape of the fitted curve.

Row | Compound | activity change, negative = growth inhibition | Potency
1 | COc1ccc(CN(C(=O)c2ccco2)C2CCS(=O)(=O)C2)cc1 (stereo unspecified) | inactive: 8.3% | –
2 | CC1CCCN(CCCNC(=O)c2ccc3c(c2)N(Cc2ccccc2F)C(=O)c2ccccc2S3(=O)=O)C1 (stereo unspecified) | – | active: 23.1 µM
3 | CC(Cc1ccccn1)NC(=O)c1ccc(OC2CCN(CCc3ccccc3)CC2)cc1 (stereo unspecified) | – | active: 18.4 µM
4 | Cc1ccccc1-n1c(C)nnc1SC(C)C(=O)NCC1CCCO1 (stereo unspecified) | inactive: -13.9% | –
5 | O=C(c1cccs1)N1CCN(S(=O)(=O)N2CCCCC2)CC1 | inactive: -7.07% | –
6 | COC(=O)c1ccc(NC(=O)c2nc(SCc3ccccc3F)ncc2Cl)cc1 | – | inconclusive [inhibitor, single point]
7 | CCOc1ccc(NC(=O)c2ccc(OCC3CCCO3)cc2)cc1S(=O)(=O)N(CC)CC (stereo unspecified) | inactive: -24.3% | –
8 | Cc1ccccc1-c1nc(CN2CCC(C(=O)NCc3ccccc3Cl)CC2)c(C)o1 | – | inconclusive [inhibitor, single point]
9 | O=C(NNc1ccc([N+](=O)[O-])cc1)C12CC3CC(CC(C3)C1)C2 | inconclusive: -31.3% [inhibitor] | –
10 | CS(=O)(=O)c1ccc(Nc2nc(C(N)c3ccccc3Cl)cs2)cc1 (stereo unspecified) | – | inconclusive [inhibitor, single point]
11 | CS(=O)(=O)N(Cc1ccc(C(=O)NN=C2CCCC2)cc1)c1ccccc1 | inactive: -23.6% | –
12 | CCOc1ccc(N2CC(NC(=O)CCc3ccccc3)CC2=O)cc1 (stereo unspecified) | inactive: 3.59% | –
13 | CCN(CC)S(=O)(=O)c1cccc(C(=O)N[C@H](C(=O)NCc2ccccc2F)C(C)C)c1 | – | inconclusive [inhibitor, partial curve]
14 | COc1cccc(Cn2cnc(-c3ccccc3OC)c2-c2cccnc2)c1 | – | inconclusive [inhibitor, single point]
15 | COCCCn1c(=O)c2ccccc2n(CC(=O)N2CCCc3ccccc32)c1=O | – | active: 25.9 µM
16 | CCCN(CC(=O)Nc1ccccc1C)C(=O)COC(=O)CSc1ccc([N+](=O)[O-])cc1 | inactive: -8.13% | –
17 | C=CCOc1ccccc1CNc1ccccc1C | – | inconclusive [inhibitor, partial curve, poor fit]
18 | CC(OC(=O)c1cnccn1)C(=O)Nc1nc(-c2cccc([N+](=O)[O-])c2)cs1 (stereo unspecified) | – | inconclusive [inhibitor, single point]
19 | COCCn1c(SCC(=O)Nc2ccc(Cl)cn2)nc2ccccc21 | – | inconclusive [inhibitor, single point]
20 | CC(OC(=O)/C=C/c1cccs1)C(=O)NC1CCCCC1C (stereo unspecified) | inactive: -2.99% | –
21 | COc1ccc(CC(=O)NCc2cccc(CNC(=O)Cc3ccc(OC)c(OC)c3)c2)cc1OC | inactive: -7.34% | –
